Measurements from PubChem BioAssay AID686971 (National Center for Advancing Translational Sciences (NCATS), 2013).
About 7,500 (2.1%) of roughly 360,000 compounds were called active. The shares of active, inactive and inconclusive entries below differ from those in the screen. The call rests on the fitted dose curve; in most records, active means well fitted cell-killing curve with a large enough effect; inconclusive means small, poorly fitted or top-dose-only effect, or effect the other way, or another doubt; inactive means no such curve, though single readings can be large or run the other way. Potencies of inconclusive entries are left out as doubtful fits.
Potency means the concentration at half of the fitted maximal effect; tags describe the fitted curve by direction and shape.

Assay: qHTS for induction of synthetic lethality in tumor cells producing 2HG: qHTS for the HT-1080-IDH1KD cell line;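 on activity, negative = toxicity: 0% = DMSO wells and -100% = cell-free medium wells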
Conditions: HT-1080 IDH1 knockdown viability, ATP luminescence, 48 h; activity, negative = toxicity: at 46.1 µM (top of the series) unless noted
Summary of the method: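 HT-1080-IDH1KD cells (IDH1 knocked down), 750/well in RPMI with 5% FBS, treated with compound 48 h at 37 degrees C. Viability by CellTiter-Glo luminescence, normalised to DMSO and no-cell wells; concentration-response curves classed.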
In the case of `COc1ccc(C(=O)O/N=C(\N)Cc2cccs2)cc1OC`, the Potency was inconclusive [cytotoxic, single point]. In the case of `Cn1c(NC(=O)C[n+]2cc(-c3ccc(Cl)cc3)n3c2CCC3)cc(=O)n(C)c1=O`, the “activity, negative = toxicity” value was inactive: 12.4%. For `O=C(N/N=C/c1c(-c2ccccc2)[nH]c2ccccc12)c1cccnc1`, the Potency was inconclusive [cytotoxic, single point]. In the case of `O=S1(=O)C=C(SCc2ccc(Cl)c(Cl)c2)Nc2ccccc21`, the Potency was inconclusive [cytotoxic, partial curve, poor fit]. With `COc1ccc2nc(NC(=O)CSC3=NCCS3)sc2c1` the Potency was inconclusive [cytotoxic, single point]. In the case of `O=C(Nc1ccc(C(=O)NCCCN2CCN(c3ccc(F)cc3)CC2)cc1)C1=CSCCO1`, the Potency was inconclusive [cytotoxic, single point]. For `COc1ccc(N2CCN(C(C)C(=O)N3CCCC3)CC2)cc1` (stereo not drawn), the Potency was inconclusive [rising, partial curve]. With `O/N=C/c1cc(Cl)ccc1OCc1ccccc1Cl` the Potency was inconclusive [cytotoxic, single point]. In the case of `O=C1c2ccc(Cl)cc2S(=O)(=O)c2cccc(C(=O)N3CCC(Cc4ccccc4)CC3)c21`, the Potency was inconclusive [cytotoxic, single point]. For `CCCCc1c(-c2ccccc2OC)ncn1CCc1ccccc1`, the Potency was active: 20.6 µM. With `CC(C)(C)C(=O)/C=c1\[nH]c(=O)/c(=C\c2ccc(F)cc2)s1` the Potency was inconclusive [cytotoxic, single point]. For `CCOc1cc(CN2CCN(c3ncccn3)CC2)ccc1OC`, the “activity, negative = toxicity” value was inactive: 8.96%. In the case of `COC(=O)/C=C/c1ccccc1S(=O)(=O)N(Cc1ccccc1)Cc1ccco1`, the Potency was active: 4.61 µM. For `CC12CCC(=O)C=C1CCC1C2CCC2(C)C(c3csc(N)n3)CCC12` (stereo not drawn), the Potency was inconclusive [cytotoxic, single point]. With `CC(C)(C)c1ccc(C(=O)O/N=C(\N)c2ccccn2)cc1` the Potency was inconclusive [cytotoxic, single point]. With `Cc1ccccc1CN1CCc2c(OCC(=O)N3CCCc4ccccc43)cccc2C1=O` the Potency was inconclusive [cytotoxic, single point]. In the case of `CC(CNC(=O)c1cccs1)c1ccc([N+](=O)[O-])cc1` (stereo not drawn), the “activity, negative = toxicity” value was inactive: -0.246%. With `COC(=O)c1ccccc1NC(=O)CSc1nc(-c2ccco2)cc(C(F)(F)F)n1` the Potency was active: 3.55 µM. For `O=C(Nc1cccc(-c2nnc(-c3ccccc3)o2)c1)c1ccc(Br)o1`, the Potency was inconclusive [cytotoxic, partial curve]. For `Cc1ccnc(NC(=O)COc2c(C)cc(C)cc2[N+](=O)[O-])c1`, the Potency was inconclusive [rising, partial curve]. In the case of `COc1cccc(/C=N/NC(=O)CN2CC(c3ccccc3)CC2=O)c1O` (stereo not drawn), the Potency was inconclusive [cytotoxic, single point]. In the case of `C=CCC1NS(=O)(=O)OC2CCCC12` (stereo not drawn), the “activity, negative = toxicity” value was inactive: -4.38%. With `Cc1ccc(C2CC(c3ccccc3)=NN2C(=S)Nc2ccccc2)o1` (stereo not drawn) the Potency was inconclusive [cytotoxic, partial curve]. For `CS(=O)(=O)c1ccc2nc(NC(=O)CCS(=O)(=O)c3ccccc3)sc2c1`, the Potency was active: 20.6 µM. In the case of `O=C(Nc1ccccc1)c1nc2ccccc2s1`, the Potency was inconclusive [cytotoxic, single point]. For `C/C=C(/C)C(=O)O[C@@H]1c2c(ccc3ccc(=O)oc23)OC(C)(C)[C@@H]1OC(=O)/C(C)=C\C`, the Potency was inconclusive [cytotoxic, single point]. With `Cc1cccc(NC(=O)Cn2nc(C(F)(F)F)cc2C2CC2)c1` the Potency was inconclusive [cytotoxic, single point]. For `CCCCc1ccc(NC(=O)N2CCNC(=O)C2CC(=O)Nc2ccsc2C(=O)OC)cc1` (stereo not drawn), the Potency was inconclusive [cytotoxic, single point]. In the case of `Cc1cc(-c2nnc(SCC(=O)Nc3ccccc3C(F)(F)F)o2)c(C)n1-c1ccccc1`, the “activity, negative = toxicity” value was inactive: -6.29%. With `OCCN1CCN(c2ncnc3c2c(-c2ccccc2)cn3-c2ccc(F)cc2)CC1` the Potency was active: 18.4 µM. With `COc1ccc2cc(C#N)c(SCC(=O)Nc3nonc3C)nc2c1` the Potency was inconclusive [cytotoxic, single point]. In the case of `O=C(CSCc1ccccc1)Nc1ccc(Cl)cn1`, the Potency was inconclusive [cytotoxic, single point]. For `Cc1ccc(N2C(=O)[C@@H]3[C@H](C2=O)[C@H]2C=CC=NN2[C@@H]3C(=O)Nc2ccc(Cl)cc2)cc1`, the “activity, negative = toxicity” value was inactive: -3.38%. In the case of `CC(C)n1cc(/C=C2/NC(=O)N(c3cccc(Cl)c3)C2=O)c2ccccc21`, the Potency was inconclusive [cytotoxic, single point]. In the case of `O=C1C(Nc2ccccc2)=C(N2CCCCC2)C(=O)c2ccccc21`, the Potency was inconclusive [cytotoxic, single point]. With `Cc1ccc2c(c1)NC(=O)C(CC(=O)NCCCN1CCN(c3cc(Cl)ccc3C)CC1)O2` (stereo not drawn) the Potency was inconclusive [cytotoxic, single point]. In the case of `CC(=O)c1cccc(Nc2nc(-c3cccc([N+](=O)[O-])c3)cs2)c1`, the Potency was inconclusive [cytotoxic, single point]. In the case of `Cc1cccc(/C=C\c2nc3ccccc3c(=O)[nH]2)c1`, the Potency was active: 5.8 µM. In the case of `Cc1cccc(N2CCN(C(=O)CCCn3c(=O)c4cccn4c4cccnc43)CC2)c1C`, the Potency was inconclusive [cytotoxic, single point]. For `COc1cc(NCCCC(C)N)c2ncccc2c1` (stereo not drawn), the Potency was active: 20.6 µM. In the case of `CN(C)CC(O)COC(c1ccc(Cl)cc1)c1ccc(Cl)cc1` (stereo not drawn), the Potency was inconclusive [cytotoxic, single point]. For `COc1ccc(CNC(=O)c2nnn(CC(=O)Nc3cc(C)cc(C)c3)c2N)cc1`, the activity, negative = toxicity was inconclusive: 0% [cytotoxic]. With `CCC1(C)Cc2ccccc2-c2nc(SC)[nH]c(=O)c21` (stereo not drawn) the Potency was inconclusive [cytotoxic, single point]. With `O=C(Nc1nccs1)c1nc[nH]c1C(=O)NCc1ccccc1` the Potency was active: 0.82 µM. For `Cc1cc(NC(=O)CSc2nc3c(C)cccc3cc2C#N)no1`, the activity, negative = toxicity was inconclusive: -30.3% [cytotoxic]. In the case of `COc1cccc(NC(=O)C(=O)NCCC2CCCCN2S(=O)(=O)c2cccs2)c1` (stereo not drawn), the “activity, negative = toxicity” value was inactive: -15.4%. In the case of `CC(C)C[C@@H](CN1CCCC1CN1C(=S)NC[C@@H]1Cc1ccccc1)N1C[C@H](Cc2ccc(O)cc2)N(CC2CCCCC2)C1=S` (stereo partly drawn), the Potency was inconclusive [cytotoxic, partial curve]. With `CCN(CC)CCN(C(=O)/C=C/c1cccs1)c1nc2ccc(C)cc2s1` the Potency was inconclusive [cytotoxic, partial curve, poor fit]. For `CC(Nc1nc(N2CCCC2)nc2ccccc12)c1ccccc1` (stereo not drawn), the Potency was inconclusive [cytotoxic, single point]. In the case of `Cc1ccc(C(=O)Nc2nnc(-c3ccco3)o2)cc1C`, the Potency was inconclusive [cytotoxic, single point]. With `O=c1cc(NC2CCCCC2)c2ccccc2o1` the Potency was inconclusive [cytotoxic, single point]. In the case of `COc1cc2cc(C(c3nnnn3C3CCCC3)N(C)C3CCCCC3)c(=O)[nH]c2cc1OC` (stereo not drawn), the Potency was inconclusive [cytotoxic, single point]. For `CC1(NC(=O)CC(c2ccccc2)(c2ccccc2)c2ccccc2)CCN(CCCc2ccccc2)C1=O` (stereo not drawn), the Potency was inconclusive [cytotoxic, single point]. For `CCCCOC(=O)Nc1nc(C)c(C(=O)OCC)s1`, the “activity, negative = toxicity” value was inactive: 6.57%. With `CCC[C@@H](CN1CCC[C@H]1CN1C(N)=NC[C@H]1CC(C)C)N1C[C@@H](Cc2ccccc2)N(CCc2ccc(Cl)c(Cl)c2)C1=N` the “activity, negative = toxicity” value was inactive: -1.88%. For `O=C(Nc1ccc(N2CCN(C(=O)c3cccs3)CC2)cc1)c1ccccc1Cl`, the Potency was active: 9.2 µM. With `CC(C)CCNC(=O)C1CCCN(S(=O)(=O)c2ccc3c(c2)CC(C)N3C(=O)C2CC2)C1` (stereo not drawn) the “activity, negative = toxicity” value was inactive: -11%. In the case of `CC(C)(C#N)NC(=O)C1CCCN1S(=O)(=O)c1ccc2ccccc2c1` (stereo not drawn), the Potency was inconclusive [cytotoxic, single point]. For `COc1ccc(-c2ccc3c(c2)S(=O)(=O)c2cccc(C(=O)NC4CC4)c2C3=O)cc1OC`, the “activity, negative = toxicity” value was inactive: -18.6%. For `COc1ccc(CNC[C@@H](CCCCN(C)Cc2ccc(OC)cc2)N2C[C@H](c3ccccc3)N(CCc3ccc(Cl)c(Cl)c3)C(=O)C2=O)cc1`, the Potency was active: 23.1 µM. For `Cc1ccc(-c2csc(-c3c[nH]c4ccccc34)n2)c(C)c1`, the Potency was active: 18.4 µM. In the case of `COc1ccc(C(=O)/C=C/c2ccc(OC)c(CN3CCOCC3)c2)cc1`, the Potency was inconclusive [cytotoxic, partial curve, poor fit]. With `O=S1(=O)Nc2c(ccc3cccnc23)-c2ccccc21` the Potency was active: 0.316 µM. For `CC(C)N(C(=O)[C@H]1C[C@H](CC(=O)NCCC2=CCCCC2)C(=O)N2CCc3c([nH]c4cc(-c5ccco5)ccc34)[C@]12C)C(C)C`, the Potency was inconclusive [cytotoxic, single point]. For `C=CCn1c(=S)[nH]c2scc(-c3ccc(C)o3)c2c1=O`, the Potency was active: 16.4 µM. In the case of `COc1ccc(CNC(=O)c2cccc3c(-c4ccc(F)c(F)c4)coc23)cc1OC`, the Potency was active: 16.4 µM. With `O=C(C1CC(c2ccc(F)cc2)=NO1)N1CCN(Cc2ccccc2)CC1` (stereo not drawn) the “activity, negative = toxicity” value was inactive: -6.52%. With `CN(C)CCNC(=O)c1cccc(-c2cnc3c(NC=O)cc(-c4cccc(F)c4)cn23)c1` the Potency was inconclusive [cytotoxic, single point].
